The results in this text go back to PMC9911399, “Two distinct binding modes provide the RNA-binding protein RbFox with extraordinary sequence specificity”.

T1: RBFOX1 RRM RbFoxmut (Fox-RRM*) (Homo sapiens, UniProt Q9NWB1 109-208, R118D;E147R;N151S;E152T)
T1 sequence: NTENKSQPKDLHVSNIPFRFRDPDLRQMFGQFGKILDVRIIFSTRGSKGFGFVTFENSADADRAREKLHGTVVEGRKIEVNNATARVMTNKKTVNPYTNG

B1: CUAGAGG (DNA:RNA)
RNA: GGGAGACCGGAAUUCAGAUUGUCCCUAGAGGUUAAAUCCCGUCGUAGCCACCA
DNA 1: CAATCTGAATTCCGGTCTCCC
DNA 2: TGGTGGCTACGACGGGATT
B2: CGGAAGC (DNA:RNA)
RNA: B1 RNA with U26G, A27G, G28A, G31C
DNA 1: CAATCTGAATTCCGGTCTCCC
DNA 2: TGGTGGCTACGACGGGATT
B3: UAAGCCU (DNA:RNA)
RNA: B1 RNA with C25U, U26A, A29C, G30C, G31U
DNA 1: CAATCTGAATTCCGGTCTCCC
DNA 2: TGGTGGCTACGACGGGATT
B4: AGUAGUA (DNA:RNA)
RNA: GGGAGACCGGAAUUCAGAUUGUCCAGUAGUAUUAAAUCCCGUCGUAGCCACCA
DNA 1: CAATCTGAATTCCGGTCTCCC
DNA 2: TGGTGGCTACGACGGGATT
B5: GAACAGU (DNA:RNA)
RNA: B1 RNA with C25G, U26A, G28C, G31U
DNA 1: CAATCTGAATTCCGGTCTCCC
DNA 2: TGGTGGCTACGACGGGATT
B6: GGUGCCC (DNA:RNA)
RNA: B4 RNA with A25G, A28G, G29C, U30C, A31C
DNA 1: CAATCTGAATTCCGGTCTCCC
DNA 2: TGGTGGCTACGACGGGATT
B7: CGGCAUG (DNA:RNA)
RNA: B1 RNA with U26G, A27G, G28C, G30U
DNA 1: CAATCTGAATTCCGGTCTCCC
DNA 2: TGGTGGCTACGACGGGATT
B8: UCGAUAG (DNA:RNA)
RNA: B4 RNA with A25U, G26C, U27G, G29U, U30A, A31G
DNA 1: CAATCTGAATTCCGGTCTCCC
DNA 2: TGGTGGCTACGACGGGATT
B9: GUGUCUA (DNA:RNA)
RNA: B4 RNA with A25G, G26U, U27G, A28U, G29C
DNA 1: CAATCTGAATTCCGGTCTCCC
DNA 2: TGGTGGCTACGACGGGATT
B10: CCCUCCC (DNA:RNA)
RNA: B1 RNA with U26C, A27C, G28U, A29C, G30C, G31C
DNA 1: CAATCTGAATTCCGGTCTCCC
DNA 2: TGGTGGCTACGACGGGATT
B11: CUUACGA (DNA:RNA)
RNA: B4 RNA with A25C, G26U, G29C, U30G
DNA 1: CAATCTGAATTCCGGTCTCCC
DNA 2: TGGTGGCTACGACGGGATT
B12: ACAGAAG (DNA:RNA)
RNA: B1 RNA with C25A, U26C, G30A
DNA 1: CAATCTGAATTCCGGTCTCCC
DNA 2: TGGTGGCTACGACGGGATT
B13: AACUUAA (DNA:RNA)
RNA: B4 RNA with G26A, U27C, A28U, G29U, U30A
DNA 1: CAATCTGAATTCCGGTCTCCC
DNA 2: TGGTGGCTACGACGGGATT
B14: GGGGUGU (DNA:RNA)
RNA: B1 RNA with C25G, U26G, A27G, A29U, G31U
DNA 1: CAATCTGAATTCCGGTCTCCC
DNA 2: TGGTGGCTACGACGGGATT
B15: UAUGCAA (DNA:RNA)
RNA: B4 RNA with A25U, G26A, A28G, G29C, U30A
DNA 1: CAATCTGAATTCCGGTCTCCC
DNA 2: TGGTGGCTACGACGGGATT
B16: AGCGUAC (DNA:RNA)
RNA: B4 RNA with U27C, A28G, G29U, U30A, A31C
DNA 1: CAATCTGAATTCCGGTCTCCC
DNA 2: TGGTGGCTACGACGGGATT
B17: GCGAAUU (DNA:RNA)
RNA: B4 RNA with A25G, G26C, U27G, G29A, A31U
DNA 1: CAATCTGAATTCCGGTCTCCC
DNA 2: TGGTGGCTACGACGGGATT
B18: CUUCGUG (DNA:RNA)
RNA: B4 RNA with A25C, G26U, A28C, A31G
DNA 1: CAATCTGAATTCCGGTCTCCC
DNA 2: TGGTGGCTACGACGGGATT
B19: GCUAUUU (DNA:RNA)
RNA: B4 RNA with A25G, G26C, G29U, A31U
DNA 1: CAATCTGAATTCCGGTCTCCC
DNA 2: TGGTGGCTACGACGGGATT
B20: CCAAUUU (DNA:RNA)
RNA: B4 RNA with A25C, G26C, U27A, G29U, A31U
DNA 1: CAATCTGAATTCCGGTCTCCC
DNA 2: TGGTGGCTACGACGGGATT
B21: UGUAUUG (DNA:RNA)
RNA: B4 RNA with A25U, G29U, A31G
DNA 1: CAATCTGAATTCCGGTCTCCC
DNA 2: TGGTGGCTACGACGGGATT
B22: ACCACAG (DNA:RNA)
RNA: B4 RNA with G26C, U27C, G29C, U30A, A31G
DNA 1: CAATCTGAATTCCGGTCTCCC
DNA 2: TGGTGGCTACGACGGGATT
B23: AAGGACA (DNA:RNA)
RNA: B4 RNA with G26A, U27G, A28G, G29A, U30C
DNA 1: CAATCTGAATTCCGGTCTCCC
DNA 2: TGGTGGCTACGACGGGATT
B24: CUGUACU (DNA:RNA)
RNA: B1 RNA with A27G, G28U, G30C, G31U
DNA 1: CAATCTGAATTCCGGTCTCCC
DNA 2: TGGTGGCTACGACGGGATT
B25: GAUGAUA (DNA:RNA)
RNA: B4 RNA with A25G, G26A, A28G, G29A
DNA 1: CAATCTGAATTCCGGTCTCCC
DNA 2: TGGTGGCTACGACGGGATT
B26: GGACUGU (DNA:RNA)
RNA: B1 RNA with C25G, U26G, G28C, A29U, G31U
DNA 1: CAATCTGAATTCCGGTCTCCC
DNA 2: TGGTGGCTACGACGGGATT
B27: UGCUGUU (DNA:RNA)
RNA: B4 RNA with A25U, U27C, A28U, A31U
DNA 1: CAATCTGAATTCCGGTCTCCC
DNA 2: TGGTGGCTACGACGGGATT
B28: CGAGGCU (DNA:RNA)
RNA: B1 RNA with U26G, A29G, G30C, G31U
DNA 1: CAATCTGAATTCCGGTCTCCC
DNA 2: TGGTGGCTACGACGGGATT
B29: UGGAAUU (DNA:RNA)
RNA: B4 RNA with A25U, U27G, G29A, A31U
DNA 1: CAATCTGAATTCCGGTCTCCC
DNA 2: TGGTGGCTACGACGGGATT
B30: CUCGACC (DNA:RNA)
RNA: B1 RNA with A27C, G30C, G31C
DNA 1: CAATCTGAATTCCGGTCTCCC
DNA 2: TGGTGGCTACGACGGGATT
B31: UUCACCU (DNA:RNA)
RNA: B4 RNA with A25U, G26U, U27C, G29C, U30C, A31U
DNA 1: CAATCTGAATTCCGGTCTCCC
DNA 2: TGGTGGCTACGACGGGATT

Numbering of substitutions follows the chain as printed; changes in the protein carry UniProt numbers. This is one part of the list.

In this experiment the target is T1, RBFOX1 RRM RbFoxmut (Fox-RRM*). As to the kind of experiment: EMSA; HiTS-Eq, 1 nM pool, 10 min; buffer printed only for the single-RNA assays: 10 mM Tris pH 7.5, 150 mM NaCl, 3.4 mM EDTA, 0.001% NP-40, 30 C. Conditions: tags: His6 N-terminal (pET28a); label: 5' 32P. A digest of the protocol:
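Purified RbFox RRM (wild type or mutant) was equilibrated for 10 min in 50 µL with 1 nM of a 5′-radiolabelled pool of RNA with 7 randomized nucleotides, its flanks annealed to DNA oligonucleotides, across increasing protein concentrations. Free RNA was separated by 8% native PAGE, excised, reverse-transcribed, PCR-barcoded and sequenced on an Illumina HiSeq 2500. Relative association constants came from read-count changes of each variant against the control reaction, normalised to the cognate motif.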
On the technique in general: A gel shift assay detects complexes by their altered migration in electrophoresis.
For B1, the binding signal was 0.0724 KA relative to UGCAUGU.
In the case of B2 it was 0.0533 KA relative to UGCAUGU; in that of B3, 0.0897 KA relative to UGCAUGU.
In the case of B4, the binding signal is 0.136 KA relative to UGCAUGU.
To B5 belongs 0.0727 KA relative to UGCAUGU.
To B6 belongs 0.0712 KA relative to UGCAUGU; to B7, 0.998 KA relative to UGCAUGU.
In the case of B8 it was 0.1 KA relative to UGCAUGU; in that of B9, 0.13 KA relative to UGCAUGU; in that of B10, 0.0396 KA relative to UGCAUGU.
As for B11, the binding signal is 0.0655 KA relative to UGCAUGU.
As to B12, the binding signal is 0.132 KA relative to UGCAUGU.
As to B13, the binding signal was 0.113 KA relative to UGCAUGU.
With B14, the binding signal is 0.267 KA relative to UGCAUGU.
To B15 belongs 0.067 KA relative to UGCAUGU; to B16, 0.123 KA relative to UGCAUGU.
B17: the binding signal is 0.113 KA relative to UGCAUGU.
On to B18, for which the binding signal is 0.135 KA relative to UGCAUGU.
For B19, the binding signal is 0.0933 KA relative to UGCAUGU.
Regarding B20, the binding signal is 0.0683 KA relative to UGCAUGU.
In the case of B21 it was 0.691 KA relative to UGCAUGU; in that of B22, 0.0853 KA relative to UGCAUGU; in that of B23, 0.0434 KA relative to UGCAUGU.
B24: the binding signal was 0.102 KA relative to UGCAUGU.
In the case of B25 it was 0.12 KA relative to UGCAUGU; in that of B26, 0.263 KA relative to UGCAUGU.
To B27 belongs 0.127 KA relative to UGCAUGU.
For B28, the binding signal was 0.0861 KA relative to UGCAUGU.
To B29 belongs 0.104 KA relative to UGCAUGU; to B30, 0.0878 KA relative to UGCAUGU; to B31, 0.0905 KA relative to UGCAUGU.
